Test results reported in PMC4336329 (PLoS ONE, 2015).
Screen size: about 310,000 compounds; about 2,200 (0.71%) showed an effect of 50% or more. Effects have a minus sign here. The list shows a part of the results.

Each compound was assayed against human ether-à-go-go-related gene (hERG) potassium channel (human, UniProt Q12809) (assay: primary screen, population patch clamp on CHO cells stably expressing hERG).
Sequence of human ether-à-go-go-related gene (hERG) potassium channel (Q12809 whole entry, looked up): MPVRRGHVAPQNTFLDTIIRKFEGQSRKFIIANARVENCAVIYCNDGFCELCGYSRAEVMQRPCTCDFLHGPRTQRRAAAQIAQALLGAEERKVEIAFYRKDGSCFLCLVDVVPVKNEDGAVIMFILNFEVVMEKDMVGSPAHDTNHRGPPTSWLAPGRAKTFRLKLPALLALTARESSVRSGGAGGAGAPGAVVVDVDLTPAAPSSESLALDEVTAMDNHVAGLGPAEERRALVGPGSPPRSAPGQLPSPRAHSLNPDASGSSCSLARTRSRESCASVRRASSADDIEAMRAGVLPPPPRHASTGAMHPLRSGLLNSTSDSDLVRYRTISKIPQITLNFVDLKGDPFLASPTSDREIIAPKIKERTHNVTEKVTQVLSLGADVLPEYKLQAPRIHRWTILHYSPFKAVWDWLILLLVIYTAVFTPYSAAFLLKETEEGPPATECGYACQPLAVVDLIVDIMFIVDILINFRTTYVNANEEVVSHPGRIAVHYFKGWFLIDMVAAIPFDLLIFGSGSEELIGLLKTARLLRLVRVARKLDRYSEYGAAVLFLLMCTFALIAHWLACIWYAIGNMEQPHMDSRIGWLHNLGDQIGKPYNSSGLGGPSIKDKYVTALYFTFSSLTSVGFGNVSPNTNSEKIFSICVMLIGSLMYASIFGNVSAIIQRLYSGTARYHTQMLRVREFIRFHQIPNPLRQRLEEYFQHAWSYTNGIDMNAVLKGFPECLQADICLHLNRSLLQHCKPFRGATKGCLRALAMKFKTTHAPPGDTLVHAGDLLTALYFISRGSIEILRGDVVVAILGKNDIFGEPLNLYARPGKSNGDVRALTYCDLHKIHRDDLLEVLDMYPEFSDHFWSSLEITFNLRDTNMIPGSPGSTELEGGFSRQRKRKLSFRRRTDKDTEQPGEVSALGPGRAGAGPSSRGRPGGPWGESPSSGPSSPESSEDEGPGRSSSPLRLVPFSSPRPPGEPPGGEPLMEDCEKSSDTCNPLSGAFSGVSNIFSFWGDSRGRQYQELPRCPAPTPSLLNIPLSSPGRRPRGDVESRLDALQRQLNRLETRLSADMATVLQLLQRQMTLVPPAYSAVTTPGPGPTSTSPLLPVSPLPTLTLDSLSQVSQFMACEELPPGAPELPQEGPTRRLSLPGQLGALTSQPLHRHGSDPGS

Row | SMILES | hERG current change (%, negative = inhibition) at 1uM
1 | CCC(=O)Nc1nc2ccccc2n1CCN(CC)CC | -0.302%
2 | CCOc1cc(N2CCOCC2)c(OCC)cc1NC(=O)c1ccc(S(C)(=O)=O)cc1 | 8.68%
3 | CC(NC(=O)c1cccc(S(=O)(=O)N2CCc3ccccc32)c1)c1ccco1 (stereo not drawn) | 3.82%
4 | O=C(CCc1nnc2ccc(NCc3ccco3)nn12)N1CCN(c2ccccc2)CC1 | -6.8%
5 | Cn1c(-c2ccc3c(c2)OCO3)cnc1NCc1ccccc1.O=C(O)C(=O)O | -23.1%
6 | COc1ccccc1/C=N/NC(=O)c1cccc(NC(=O)c2ccccc2Cl)c1 | 7.87%
7 | CCn1c(CN2CCOCC2)nnc1SCC(=O)Nc1ccc(C)cc1 | 12.5%
8 | O=C1/C(=C/c2ccccc2F)SC(=S)N1CC(=O)N1CCCCC1c1cccnc1 (stereo not drawn) | 17.9%
9 | CC12CCC(=O)N1C(C(=O)NCc1ccccc1Cl)CS2 (stereo not drawn) | 4.86%
10 | Cn1nc(C(F)(F)F)c(C(=O)Nc2ccc(F)cc2F)c1Cl | 9.99%
11 | Cc1ccc(S(=O)(=O)N2CCOCC2)cc1C(=O)NCc1ccc(F)cc1 | 4.96%
12 | Cc1nc(C(F)(F)F)c(C(=O)N=CN(C)C)s1 | 15.2%
13 | C(=N\Nc1nc2ccccc2s1)/c1ccc2c(c1)OCO2 | 8.13%
14 | OCCC1CN(CC2CCCCC2)CCN1C1CCCC1 (stereo not drawn) | 10.1%
15 | Cc1ccc(N(C(=O)C2CCC(=O)N2)C2(C(=O)NC3CCCC3)CCCCC2)cc1 (stereo not drawn) | 3.56%
16 | CNC(=O)COC(=O)/C=C/c1nc2ccccc2s1 | 12.1%
17 | Cl.NC1(C(=O)O)CC1 | 17.9%
18 | COc1ccc(/C=N/NC(=O)c2ccccc2O)cc1CN1CCOCC1 | 4.04%
19 | Cc1csc(C(=O)NN)c1N(C)C | 15.2%
20 | O=C(NCC(=O)N1CCN(C(=O)c2ccccc2)CC1)c1ccccc1 | 10.1%
21 | O=c1c2ccccc2nc(-c2ccccc2)n1-c1cccc(O)c1 | 11.8%
22 | O=C(O)C(=O)O.O=C(c1cccc2ccccc12)N1CCN(CC2CC=CCC2)CC1 (stereo not drawn) | 14.1%
23 | COC(=O)c1ccc(NC(=S)NC(=O)c2c(Cl)cnn2C)cc1 | 16%

Row | SMILES | hERG current change (%, negative = inhibition) at 1uM
24 | COc1cccc(CN2CC(C(=O)N3CCCC3)CCC2=O)c1 (stereo not drawn) | 10.9%
25 | O=C(O)c1ccc(C[n+]2c(-c3ccccc3)csc2Nc2ccccc2)cc1.[Br-] | 8.98%
26 | O=C1NC2(CCCc3ccccc32)C(=O)N1Cc1nnc(-c2ccccc2Br)o1 (stereo not drawn) | 8.8%
27 | CC(C)Sc1nc(N)nc(-c2cccs2)c1C#N | 7.1%
28 | O=C(NCc1ccccc1)c1ccc(N2CCC3(CC2)CC(c2ccc(Cl)cc2)=NO3)c([N+](=O)[O-])c1 | 9.36%
29 | O=C(CCN1C(=O)c2ccccc2C1=O)NCCN1CCOCC1 | 13.7%
30 | CC(C)c1ccc(NC(=O)C2CCCCN2S(=O)(=O)c2ccccc2)cc1 (stereo not drawn) | -3.19%
31 | O=S(=O)(NCc1ccccn1)c1cccc2nsnc12 | 10.3%
32 | CCOC(=O)c1c(N)sc(C(=O)N2CCCC(C(N)=O)C2)c1C (stereo not drawn) | 9.64%
33 | N#Cc1c(-n2cccc2/C=N/O)sc2c1CCCC2 | 1.01%
34 | Cc1ccccc1NC(=O)C1C2CC/C=C\CCC21 (stereo not drawn) | 27.7%
35 | Cc1occc1-c1nnc(SCC(=O)Nc2ccccn2)o1 | 11.8%
36 | COc1ccc(-c2nn(-c3ccccc3)cc2/C=C(\CC(=O)O)c2nc3ccccc3s2)cc1OC | 13.1%
37 | CC(C)Oc1ccc(CCc2n[nH]c(=S)n2-c2ccccc2)cc1 | 13.2%
38 | CCc1ccc(CCOc2ccc(CC3SC(=O)NC3=O)cc2)nc1.Cl (stereo not drawn) | 9.07%
39 | COc1ccc(NC(=O)c2cc(-c3ccc(OC)c(OC)c3)on2)cc1OC | 2.21%
40 | CCCc1ccc(C(=O)COC(=O)CN2C(=O)NC3(CCCCC3C)C2=O)cc1 (stereo not drawn) | 7.8%
41 | O=C(O)CC/C(=C\c1cc2c(cc1Br)OCO2)c1nc2ccccc2s1 | 9.4%
42 | CSc1nc(Oc2ccc(=O)[nH]n2)nc(N(C)C)n1 | 17.9%
43 | O=C1OC(N2C(=O)CC[C@H]2C(=O)Nc2cccc(F)c2)c2ccccc21 (stereo partly drawn) | 11.1%
44 | COC(=O)NCC(c1ccc2c(c1)OCO2)N1CCN(c2ccccc2)CC1 (stereo not drawn) | -0.766%
45 | O=C(CNc1cccc(S(=O)(=O)N2CCCCC2)c1)Nc1cccc(F)c1 | 11.7%
46 | CCc1ccc(NC(=S)N(CCN2CCOCC2)Cc2ccccc2F)cc1 | 4.52%

Row | SMILES | hERG current change (%, negative = inhibition) at 1uM
47 | COc1cc(/C=N/NC(=O)c2ccc(Cl)c(S(N)(=O)=O)c2)ccc1OCC(N)=O | 10.3%
48 | COCCCNCCOc1ccc(C)cc1[N+](=O)[O-].O=C(O)C(=O)O | 5.62%
49 | CCOC(=O)C1CCCN(CC(=O)Nc2c(F)c(F)c(F)c(F)c2F)C1 (stereo not drawn) | 4.79%
50 | CC1CCN(c2nc3ccc(C(=O)O)cc3s2)CC1 | 20.8%
51 | COc1cccc(/C=C2\N=C3CCCCCN3C2=O)c1 | 5.03%
52 | O=C(NCc1ccco1)c1nc(-c2ccc(F)cc2)no1 | 2.36%
53 | Cc1cc(C(=O)O)c(C)n1-c1ccccc1 | 7.19%
54 | COC(=O)Cc1c(C)c2ccc(OC3CCCCC3=O)c(C)c2oc1=O (stereo not drawn) | 5.45%
55 | CN(C)S(=O)(=O)c1cccc(NC(=O)COC(=O)/C=C/c2ccco2)c1 | 6.72%
56 | Cc1ccc(C(=O)C[n+]2cccc3cc(C)ccc32)cc1.[Br-] | 3.46%
57 | CCOc1ccccc1N=CC1=C(O)CC(c2ccccc2)CC1=O (stereo not drawn) | 9.27%
58 | S=C(NCCc1ccccc1)NCc1ccccc1Cl | 8.67%
59 | Cc1ccc(OCC(=O)NC(=S)Nc2cccc(NC(=O)c3ccc(Cl)cc3Cl)c2)cc1 | 25.9%
60 | Cc1ccc(O)c(C(=O)c2cc(C(=O)NCCc3ccccc3)c(=O)n(CCc3ccccc3)c2)c1 | 11.4%
61 | CCOc1ccc(N2C(=O)CC(Sc3nc4ccc(OCC)cc4s3)C2=O)cc1 (stereo not drawn) | 13.6%
62 | CC(=O)Nc1ccccc1-c1ccc(C)o1 | 14.4%
63 | COc1ccc(CCNC(=O)c2cc3c(=O)n4cccc(C)c4nc3n(CC3CCCO3)c2=N)cc1 (stereo not drawn) | -79.4%
64 | CC(C)(C)Cc1nnc(NC(=O)c2ccco2)s1 | 13.6%
65 | CCOc1cc(/C=N/NC(=O)CSc2cccc3cccnc23)ccc1O | 13%
66 | COc1ccccc1/C=N/NC(=O)c1ccc(CN2C(=O)c3cccc4cccc2c34)cc1 | 6.16%
67 | Cc1ccc2nc(SCC(=O)NC3CCCC3)[nH]c2c1 | 9.65%
68 | CC(OC(=O)c1ccc(Br)c(S(=O)(=O)N2CCOCC2)c1)C(=O)NC1CCCCC1C (stereo not drawn) | 2.4%
69 | c1coc(CNc2nc(-c3cccs3)cs2)c1 | 7.14%

Row | SMILES | hERG current change (%, negative = inhibition) at 1uM
70 | NC(N)=N/N=C/c1cccc(Cl)c1Cl | -5.72%
71 | NC(=O)COC(=O)c1ccc(NS(=O)(=O)c2ccc3c(c2)OCCO3)cc1 | 0.98%
72 | Cc1ccc(S(=O)(=O)Nc2ccccc2C=Nc2cccc(C)c2C)cc1 | 2.89%
73 | COc1ccccc1NC(=S)NNC(=O)c1ccccc1 | 2.82%
74 | O=C1CSC(=Nc2cccc(Cl)c2Cl)N1 | 14.8%
75 | CSc1ccc(S(=O)(=O)Nc2ccc3c4c(cccc24)CC3)cc1 | 2.08%
76 | CCOC(=O)N1CCC(=NNC(N)=O)CC1 | 14.1%
77 | Cc1cccc(OCC(=O)N2CCN(C(=O)c3ccco3)CC2)c1 | -2.44%
78 | Cc1c(Cl)cccc1NC(=O)CSC(C)c1nc2ccccc2c(=O)[nH]1 (stereo not drawn) | 12.9%
79 | CCOc1ccc(C(C)(C)C)cc1S(=O)(=O)N1CC(C)OC(C)C1 (stereo not drawn) | 10.6%
80 | CCCOc1ccc(N2C(=O)CC(N(CCc3ccc(OC)c(OC)c3)C(=O)c3ccccc3)C2=O)cc1 (stereo not drawn) | -37.5%
81 | COc1ccc(N2CCN(CCCNC(=O)Cn3c(=O)c4cccn4c4cccnc43)CC2)cc1 | -26.5%
82 | CCCc1nc(SCC(=O)O)c2sc(=S)n(-c3ccccc3)c2n1 | 10.8%
83 | O=C(NN(c1ccccc1)c1ccccc1)c1ccc([N+](=O)[O-])o1 | 8.87%
84 | O=C(CCC(=O)N1CCN(c2ccccc2F)CC1)c1ccc(F)cc1 | -1.97%
85 | Cc1ccc(COC(=O)c2cc([N+](=O)[O-])ccc2N2CCOCC2)cc1 | -21%
86 | CC(=O)c1cnc(SCC(=O)O)nc1C | 16%
87 | COc1ccc(NC(=O)c2ccc(S(=O)(=O)N3CCCCCC3)cc2)c(OC)c1 | 5.1%
88 | CCN1/C(=C\C=C(C(C)=O)C(C)=O)Sc2ccccc21 | 20.4%
89 | CCO[C@H]1OC(C(=O)N2CCOCC2)=C[C@@H](C)[C@@H]1CCCO | 13.3%
90 | CCOC(=O)C1CCCN(c2nc3ccccc3nc2C(C#N)C(=O)OC(C)COC)C1 (stereo not drawn) | 9.3%
